In patent US7772236B2, “Substituted pyrazoles” (Ortho McNeil Pharmaceutical, Inc., priority 2000, dated 2010):

Each compound was assayed against Recombinant human cathepsin S (CatS) (Homo sapiens, UniProt P25774) (assay: biochemical).

| SMILES | IC50 [nM] |
| --- | --- |
| COC(=O)c1cccc(N)c1N1CCN(CC(O)Cn2nc(-c3ccc(C(F)(F)F)cc3)c3c2CCN(S(C)(=O)=O)C3)CC1 (stereo not drawn) [Example 28, 3-Amino-2-(4-{2-hydroxy-3-[5-methanesulfonyl-3-(4-trifluoromethyl-phenyl)-4,5,6,7-tetrahydro-pyrazolo[4,3-c]pyridin-1-yl]-propyl}-piperazin-1-yl)-benzoic acid methyl ester] | 70 |
| CNC(=O)Nc1cccc(Cl)c1N1CCN(CC(O)Cn2nc(-c3ccc(Br)cc3)c3c2CCN(S(C)(=O)=O)C3)CC1 (stereo not drawn) [Example 30, 1-[2-(4-{3-[3-(4-Bromo-phenyl)-5-methanesulfonyl-4,5,6,7-tetrahydro-pyrazolo[4,3-c]pyridin-1-yl]-2-hydroxy-propyl}-piperazin-1-yl)-3-chloro-phenyl]-3-methyl-urea] | 80 |
| CC(=O)N1CCc2c(c(-c3ccc(C(F)(F)F)cc3)nn2CC(O)CN2CCN(c3noc4ccccc34)CC2)C1 (stereo not drawn) [Example 24, 1-[1-[3-(4-Benzo[d]isoxazol-3-yl-piperazin-1-yl)-2-hydroxy-propyl]-3-(4-trifluoromethyl-phenyl)-1,4,6,7-tetrahydro-pyrazolo[4,3-c]pyridin-5-yl]-ethanone] | 470 |
| CC(=O)N1CCc2c(c(-c3ccc(C(F)(F)F)cc3)nn2CC(O)CN2CCN(c3ccccc3C#N)CC2)C1 (stereo not drawn) [Example 6, 2-(4-{3-[5-Acetyl-3-(4-trifluoromethyl-phenyl)-4,5,6,7-tetrahydro-pyrazolo[4,3-c]pyridin-1-yl]-2-hydroxy-propyl}-piperazin-1-yl)-benzonitrile] | 300 |
| CNC(=O)Nc1cccc(Cl)c1N1CCN(CC(O)Cn2nc(-c3ccc(C(F)(F)F)cc3)c3c2CCN(S(C)(=O)=O)C3)CC1 (stereo not drawn) [Example 27, 1-[3-Chloro-2-(4-{2-hydroxy-3-[5-methanesulfonyl-3-(4-trifluoromethyl-phenyl)-4,5,6,7-tetrahydro-pyrazolo[4,3-c]pyridin-1-yl]-propyl}-piperazin-1-yl)-phenyl]-3-methyl-urea] | 40 |
| CS(=O)(=O)Nc1cccc(Cl)c1N1CCN(CCCn2nc(-c3ccc(C(F)(F)F)cc3)c3c2CCN(S(N)(=O)=O)C3)CC1 [Example 18, 1-{3-[4-(2-Chloro-6-methanesulfonylamino-phenyl)-piperazin-1-yl]-propyl}-3-(4-trifluoromethyl-phenyl)-1,4,6,7-tetrahydro-pyrazolo[4,3-c]pyridine-5-sulfonic acid amide] | 140 |
| COC(=O)c1cccc(NS(C)(=O)=O)c1N1CCN(CC(O)Cn2nc(-c3ccc(C(F)(F)F)cc3)c3c2CCN(S(C)(=O)=O)C3)CC1 (stereo not drawn) [Example 21, 2-(4-{2-Hydroxy-3-[5-methanesulfonyl-3-(4-trifluoromethyl-phenyl)-4,5,6,7-tetrahydro-pyrazolo[4,3-c]pyridin-1-yl]-propyl}-piperazin-1-yl)-3-methanesulfonylamino-benzoic acid methyl ester] | 70 |
| CC(=O)N1CCc2c(c(-c3ccc(I)cc3)nn2CC(O)CN2CCN(c3ccccc3C#N)CC2)C1 (stereo not drawn) [Example 38, 2-(4-{3-[5-Acetyl-3-(4-iodo-phenyl)-4,5,6,7-tetrahydro-pyrazolo[4,3-c]pyridin-1-yl]-2-hydroxy-propyl}-piperazin-1-yl)-benzonitrile] | 120 |
| CS(=O)(=O)N1CCc2c(c(-c3ccc(C(F)(F)F)cc3)nn2CC(O)CN2CCN(c3c([N+](=O)[O-])cccc3[N+](=O)[O-])CC2)C1 (stereo not drawn) [Example 20, 1-[4-(2,6-Dinitro-phenyl)-piperazin-1-yl]-3-[5-methanesulfonyl-3-(4-trifluoromethyl-phenyl)-4,5,6,7-tetrahydro-pyrazolo[4,3-c]pyridin-1-yl]-propan-2-ol] | 170 |
| Cc1ccccc1N1CCN(CC(O)Cn2ccc(-c3ccc(Cl)c(Cl)c3)n2)CC1 (stereo not drawn) [Example 7, 1-[3-(3,4-Dichloro-phenyl)-pyrazol-1-yl]-3-(4-o-tolyl-piperazin-1-yl)-propan-2-ol] | 6600 |
| CS(=O)(=O)N1CCc2c(c(-c3ccc(C(F)(F)F)cc3)nn2CCCN2CCN(c3c(N)cccc3Cl)CC2)C1 [Example 29, 3-Chloro-2-(4-{3-[5-methanesulfonyl-3-(4-trifluoromethyl-phenyl)-4,5,6,7-tetrahydro-pyrazolo[4,3-c]pyridin-1-yl]-propyl}-piperazin-1-yl)-phenylamine] | 70 |

Further lines, results first:

| IC50 [nM] | SMILES |
| --- | --- |
| 3600 | Cc1ccccc1N1CCN(CC(O)Cn2nc(-c3ccc(Cl)cc3)c3c2CCC(=O)C3)CC1 (stereo not drawn) [Example 238, 3-(4-Chloro-phenyl)-1-[2-hydroxy-3-(4-o-tolyl-piperazin-1-yl)-propyl]-1,4,6,7-tetrahydro-indazol-5-one] |
| 440 | Cc1ccccc1N1CCN(CC(O)Cn2nc(-c3ccc(I)cc3)c3c2CCN(S(=O)(=O)C(C)C)C3)CC1 (stereo not drawn) [Example 245, 1-[3-(4-Iodo-phenyl)-5-(propane-2-sulfonyl)-4,5,6,7-tetrahydro-pyrazolo[4,3-c]pyridin-1-yl]-3-(4-o-tolyl-piperazin-1-yl)-propan-2-ol] |
| 770 | CC(=O)N1CCc2c(c(-c3ccc(C(F)(F)F)cc3)nn2CC(O)CN2CCN(c3nc4ccc([N+](=O)[O-])cc4s3)CC2)C1 (stereo not drawn) [Example 312, 1-[1-{2-Hydroxy-3-[4-(6-nitro-benzothiazol-2-yl)-piperazin-1-yl]-propyl}-3-(4-trifluoromethyl-phenyl)-1,4,6,7-tetrahydro-pyrazolo[4,3-c]pyridin-5-yl]-ethanone] |
| 260 | Cc1ccccc1N1CCN(CC(O)Cn2nc(-c3ccc(Cl)cc3)c3c2CCN(C(N)=O)C3)CC1 (stereo not drawn) [Example 190, 3-(4-Chloro-phenyl)-1-[2-hydroxy-3-(4-o-tolyl-piperazin-1-yl)-propyl]-1,4,6,7-tetrahydro-pyrazolo[4,3-c]pyridine-5-carboxylic acid amide] |
| 4900 | CC(=O)N1CCc2c(c(-c3ccc(Cl)cc3)nn2CC(CN2CCN(c3ccccc3C)CC2)OC(=O)NC(=O)c2ccccc2)C1 (stereo not drawn) [Example 167, Benzoyl-carbamic acid 1-[5-acetyl-3-(4-chloro-phenyl)-4,5,6,7-tetrahydro-pyrazolo[4,3-c]pyridin-1-ylmethyl]-2-(4-o-tolyl-piperazin-1-yl)-ethyl ester] |
| 1500 | Cc1ccccc1N1CCN(CC(O)Cn2nc(-c3ccc(Cl)cc3)c3c2CCN(C(=O)NCCc2ccccc2)C3)CC1 (stereo not drawn) [Example 208, 3-(4-Chloro-phenyl)-1-[2-hydroxy-3-(4-o-tolyl-piperazin-1-yl)-propyl]-1,4,6,7-tetrahydro-pyrazolo[4,3-c]pyridine-5-carboxylic acid phenethyl-amide] |
| 2100 | CC(=O)N1CCc2c(c(-c3ccc(Br)cc3)nn2CC(CN2CCN(c3ccccc3C#N)CC2)N=[N+]=[N-])C1 (stereo not drawn) [Example 311, 2-(4-{3-[5-Acetyl-3-(4-bromo-phenyl)-4,5,6,7-tetrahydro-pyrazolo[4,3-c]pyridin-1-yl]-2-azido-propyl}-piperazin-1-yl)-benzonitrile] |
| 350 | CC(=O)N1CCc2c(c(-c3ccc(Cl)cc3)nn2CC(O)CN2CCN(c3ccccc3C#N)CC2)C1 (stereo not drawn) [Example 143, 2-(4-{3-[5-Acetyl-3-(4-chloro-phenyl)-4,5,6,7-tetrahydro-pyrazolo[4,3-c]pyridin-1-yl]-2-hydroxy-propyl}-piperazin-1-yl)-benzonitrile] |
| 950 | CNC(=O)N1CCc2c(c(-c3ccc(Cl)cc3)nn2CC(O)CN2CCN(c3ccccc3C)CC2)C1 (stereo not drawn) [Example 205, 3-(4-Chloro-phenyl)-1-[2-hydroxy-3-(4-o-tolyl-piperazin-1-yl)-propyl]-1,4,6,7-tetrahydro-pyrazolo[4,3-c]pyridine-5-carboxylic acid methylamide] |
| 140 | Cc1ccccc1N1CCN(CC(O)Cn2nc(-c3ccc(I)cc3)c3c2CCN(C(N)=O)C3)CC1 (stereo not drawn) [Example 224, 1-[2-Hydroxy-3-(4-o-tolyl-piperazin-1-yl)-propyl]-3-(4-iodo-phenyl)-1,4,6,7-tetrahydro-pyrazolo[4,3-c]pyridine-5-carboxylic acid amide] |
| 4900 | CC(=O)N1CCc2c(c(-c3ccc(Cl)c(C)c3)nn2CC(O)CN2CCN(C(=O)Nc3ccccc3C)CC2)C1 (stereo not drawn) [Example 247, 4-{3-[5-Acetyl-3-(4-chloro-3-methyl-phenyl)-4,5,6,7-tetrahydro-pyrazolo[4,3-c]pyridin-1-yl]-2-hydroxy-propyl}-piperazine-1-carboxylic acid o-tolylamide] |
| 2800 | CS(=O)(=O)N1CCc2c(c(-c3ccc(Br)cc3)nn2CCCN2CCN(C3=NS(=O)(=O)c4ccccc43)CC2)C1 [Example 277, 3-(4-Bromo-phenyl)-1-{3-[4-(1,1-dioxo-1H-1λ^6-benzo[d]isothiazol-3-yl)-piperazin-1-yl]-propyl}-5-methanesulfonyl-4,5,6,7-tetrahydro-1H-pyrazolo[4,3-c]pyridine] |
| 530 | COc1ccccc1N1CCN(CC(O)Cn2nc(-c3ccc(C(F)(F)F)cc3)c3c2CCN(C(C)=O)C3)CC1 (stereo not drawn) [Example 140, 1-[1-{2-Hydroxy-3-[4-(2-methoxy-phenyl)-piperazin-1-yl]-propyl}-3-(4-trifluoromethyl-phenyl)-1,4,6,7-tetrahydro-pyrazolo[4,3-c]pyridin-5-yl]-ethanone] |
| 1600 | Cc1ccccc1N1CCN(CC(O)Cn2nc(-c3ccc(Cl)cc3)c3c2CCN(C(=O)Cc2ccccc2)C3)CC1 (stereo not drawn) [Example 199, 1-{3-(4-Chloro-phenyl)-1-[2-hydroxy-3-(4-o-tolyl-piperazin-1-yl)-propyl]-1,4,6,7-tetrahydro-pyrazolo[4,3-c]pyridin-5-yl}-2-phenyl-ethanone] |
| 1400 | CC(=O)N1CCc2c(c(-c3ccc(Cl)cc3)nn2CC=CCN2CCN(c3ccccc3C#N)CC2)C1 [Example 174, 2-(4-{4-[5-Acetyl-3-(4-chloro-phenyl)-4,5,6,7-tetrahydro-pyrazolo[4,3-c]pyridin-1-yl]-but-2-enyl}-piperazin-1-yl)-benzonitrile] |
| 1200 | COc1cccc(N2CCN(CC(O)Cn3nc(-c4ccc(Cl)cc4)c4c3CCN(C(C)=O)C4)CC2)c1 (stereo not drawn) [Example 109, 1-(3-(4-Chloro-phenyl)-1-{2-hydroxy-3-[4-(3-methoxy-phenyl)-piperazin-1-yl]-propyl}-1,4,6,7-tetrahydro-pyrazolo[4,3-c]pyridin-5-yl)-ethanone] |
